Assay results as given in article PMC4336329 (PLoS ONE, 2015).
Hit rate of the full screen: of about 310,000 compounds, about 2,200 (0.71%) showed an effect of 50% or more. The effect is printed as a negative number. The list shows a part of the results.

What follows are molecules tested against human ether-à-go-go-related gene (hERG) potassium channel (human, UniProt Q12809) (assay: primary screen, population patch clamp on CHO cells stably expressing hERG).
Chain of human ether-à-go-go-related gene (hERG) potassium channel (Q12809 whole entry, looked up): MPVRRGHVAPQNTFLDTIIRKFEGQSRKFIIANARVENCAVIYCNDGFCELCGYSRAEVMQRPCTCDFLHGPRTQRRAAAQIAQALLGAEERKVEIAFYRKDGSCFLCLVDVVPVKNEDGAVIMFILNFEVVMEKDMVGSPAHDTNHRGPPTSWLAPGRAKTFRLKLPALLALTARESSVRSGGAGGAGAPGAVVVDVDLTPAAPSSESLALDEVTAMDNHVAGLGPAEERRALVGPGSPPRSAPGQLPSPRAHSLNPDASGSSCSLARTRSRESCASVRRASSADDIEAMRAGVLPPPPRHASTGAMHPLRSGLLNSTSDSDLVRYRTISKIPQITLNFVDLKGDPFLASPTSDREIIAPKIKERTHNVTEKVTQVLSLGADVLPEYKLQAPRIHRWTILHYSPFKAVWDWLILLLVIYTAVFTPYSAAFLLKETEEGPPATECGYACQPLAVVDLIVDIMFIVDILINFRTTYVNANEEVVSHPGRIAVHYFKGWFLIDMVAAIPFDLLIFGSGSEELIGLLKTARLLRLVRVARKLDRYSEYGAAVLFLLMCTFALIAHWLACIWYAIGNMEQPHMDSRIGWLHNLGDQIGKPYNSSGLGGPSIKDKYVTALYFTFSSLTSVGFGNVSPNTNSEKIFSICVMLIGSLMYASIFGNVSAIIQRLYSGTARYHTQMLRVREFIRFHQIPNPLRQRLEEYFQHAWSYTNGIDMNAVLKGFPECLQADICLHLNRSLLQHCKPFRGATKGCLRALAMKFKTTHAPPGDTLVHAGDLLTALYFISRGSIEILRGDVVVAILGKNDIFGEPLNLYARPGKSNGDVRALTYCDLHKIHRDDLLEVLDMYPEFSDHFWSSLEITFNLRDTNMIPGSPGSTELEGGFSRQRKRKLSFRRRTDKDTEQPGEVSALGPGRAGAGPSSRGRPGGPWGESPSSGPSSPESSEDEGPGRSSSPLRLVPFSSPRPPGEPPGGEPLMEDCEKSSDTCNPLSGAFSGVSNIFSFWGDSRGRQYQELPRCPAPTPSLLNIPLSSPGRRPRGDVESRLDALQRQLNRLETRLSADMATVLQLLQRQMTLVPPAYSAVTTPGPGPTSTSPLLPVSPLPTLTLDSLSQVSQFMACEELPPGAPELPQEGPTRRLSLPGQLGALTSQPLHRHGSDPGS

SMILES	hERG current change (%, negative = inhibition) at 1uM [%]
C=CCn1c(CCNC(=O)c2ccccc2F)nnc1SCC(=O)Nc1ccccc1F	13.7
CC(Oc1ccc(F)cc1)C(=O)N(Cc1ccccc1)c1c(N)n(Cc2ccccc2)c(=O)[nH]c1=O (stereo not shown)	2.22
N#Cc1nc(COc2ccc(F)cc2)oc1N1CCCC1	-3.37
CN1/C(=C\C=Nc2cc(S(=O)(=O)N3CCOCC3)ccc2N2CCOCC2)C(C)(C)c2ccccc21	-49.1
CCCn1c(N)c(Sc2ccc(Cl)cc2)c(=O)n(CCC)c1=O	13.8
Cc1ccc(-c2cc(C(=O)OCC(=O)N(C)C3CCS(=O)(=O)C3)c3ccccc3n2)o1 (stereo not shown)	7.38
CCc1ccc(N2C(=O)CC(=O)NC2=O)cc1	10.2
Cc1cccc(N2CCN(C(=O)c3cccc(S(=O)(=O)N4CCc5ccccc5C4)c3)CC2C)c1 (stereo not shown)	13.5
CCc1ccc(NC(=O)C2CCN(S(=O)(=O)c3c(C)noc3C)CC2)cc1	14.4
Cc1ccc(NC(=O)C(C)Sc2nnc(C)n2C2CC2)cc1S(=O)(=O)N1CCOCC1 (stereo not shown)	8.85
O=C1CC(N2CCC(c3nc4ccccc4o3)CC2)C(=O)N1 (stereo not shown)	4.96
O=C(NCCCn1ccnc1)C1CCN(S(=O)(=O)c2ccc(F)cc2)CC1	16.3
CC1CCN(S(=O)(=O)c2ccc(NN=C(C#N)C#N)cc2)CC1	-7.75
Cc1cc(NC2CCCCC2)nc(N2CCOCC2)n1	-1.28
Br.O=C(O)Cc1sc(N/N=C\c2ccccc2)nc1-c1ccccc1	4.28
COc1ccc(NC(=O)COC(=O)CCc2cc(OC)c(OC)c(OC)c2)c([N+](=O)[O-])c1	0.85
COc1cc(OC)c(NS(=O)(=O)c2cc(C(=O)OC(C)C(=O)NC3CC3)c(Cl)cc2Cl)cc1Cl (stereo not shown)	2.75
O=C1C2C3CCCC3=C3CCCC3C2C(=O)N1c1ccc(Cl)cc1 (stereo not shown)	9.92
CC(C)=CCN1CCN(Cc2ccc(N3CCNC3=O)cc2)CC1CCO (stereo not shown)	3.41
C=CCOn1c(=O)c(-c2cccs2)[n+]([O-])c2ccccc21	-7.47
O=C1CC(N2CCOCC2)C(=O)N1c1ccccc1Cl (stereo not shown)	0.198
CS(=O)(=O)c1ccc(N2CCN(S(=O)(=O)c3cccs3)CC2)c([N+](=O)[O-])c1	-31.9

SMILES	hERG current change (%, negative = inhibition) at 1uM [%]
CCN(CC)c1ccc(NC(=O)COc2ccc(N(C)S(=O)(=O)c3cccs3)cc2)cc1	8.38
CNc1nc(Nc2ccccc2)nc(OCC(F)(F)F)n1	6.56
Cc1ccc(C(=O)N[C@H](C(=O)Nc2cc(Cl)cc(Cl)c2)C(C)C)cc1	18
COCCn1c(SCC(=O)Nc2cccc(OC)c2)nnc1-c1ccc(Cl)cc1	0.924
Cc1ccc2c(c1)/C(=N/OC(=O)c1ccc(F)cc1)CCS2	10.8
O=C(NCCc1ccccc1)c1ccc(OCCOc2ccccc2)cc1	16.2
CN(CCCNC(=O)CCCOc1cc(=O)n(C)c2ccccc12)Cc1ccccc1	-4.24
O=C(COc1ccc(-n2cnnn2)cc1)Nc1cccc(Cl)c1Cl	16
Cc1ccc(-c2nnn(CCOc3cccc(Br)c3)n2)cc1	7.85
Cc1ccc(S(=O)(=O)N/N=C/c2cccs2)cc1	0.864
Cc1c(F)cccc1NS(=O)(=O)c1ccc2c(c1)c(C)cc(=O)n2C	11.8
Cc1[nH]nc(SCC(=O)Nc2ccc(C#N)cc2)c1[N+](=O)[O-]	10.2
COc1cc(/C=C2\SC(=O)N(CC(=O)Nc3cccc(C)c3)C2=O)ccc1OC(C)C(=O)O (stereo not shown)	1.85
CCOC(=O)C(=O)Nc1cc(C)on1	8.09
CCN1C(=O)c2cccc3c(S(=O)(=O)NCc4ccco4)ccc1c23	6.91
CC(Sc1ccc(Cl)cc1)C(=O)NNC(=O)c1ccccc1O (stereo not shown)	11.7
C#CC(CC)(CC)NC(=S)Nc1cccc(C(C)=O)c1	-2.76
CCOc1ccc(OCCN(C)Cc2ccccc2)cc1.O=C(O)C(=O)O	-25.5
CCOC(=O)c1c(C)n(-c2ccccc2)c2ccc(O)cc12	13.5
Cn1c(Cn2c(=O)sc3ccccc32)nnc1SCC(=O)N1CCOCC1	6.18
Cc1c(OC(C)C(=O)NCc2ccncc2)ccc2c3c(c(=O)oc12)CCC3 (stereo not shown)	17.3
CCNC(=S)N1CCc2cc(OC)c(OC)cc2C1COc1ccc(F)cc1 (stereo not shown)	6.89

SMILES	hERG current change (%, negative = inhibition) at 1uM [%]
COc1ccc(C2SCC(C(=O)O)N2C(C)=O)cc1OC (stereo not shown)	1.3
N#Cc1nc(Cc2ccccc2)oc1N1CCCC1	4.79
COc1cc(NC(=O)CSCc2cnn(-c3ccccc3)c2-n2cccc2)cc(OC)c1	17.3
O=C(NCc1ccco1)/C(=C/c1ccc([N+](=O)[O-])cc1)NC(=O)c1ccco1	-50.4
Cc1nc(CN(C)C(=O)CC2C(=O)NCCN2Cc2ccc(-c3ccccc3)cc2)cs1 (stereo not shown)	5.2
CC1(Br)C2CCCC1C2S(=O)(=O)c1ccccc1 (stereo not shown)	11.2
Cc1ccc(-n2nc(C)c(C3(O)C(=O)N(C(C)C)c4ccccc43)c2N)cc1 (stereo not shown)	9.7
Cc1nnc(NCCN2CCOCC2)[nH]c1=O	6.92
Cc1cc(=O)oc2c(C)c(OCC(=O)NCC3CCC(C(=O)O)CC3)ccc12 (stereo not shown)	9.51
CCC(C)NC(=O)CCn1c(-c2ccc(F)cc2)cc(C(C)=O)c1C (stereo not shown)	8.96
CCOc1ccc(CCNC(=O)CCN2C(=O)COc3ccccc32)cc1OCC	6.22
NS(=O)(=O)c1ccc(CCNC(=O)Cc2cccs2)cc1	8.92
COc1ccc(/C=C2\Sc3ccc(C(=O)N4CCOCC4)cc3N(C)C2=O)cc1	5.95
CCOC(=O)C1(Cc2ccc(OC)cc2)CCN(S(C)(=O)=O)CC1	7.04
O=C1c2cccnc2C(Nc2cccc(F)c2)N1Cc1ccco1 (stereo not shown)	8.54
Cc1[nH]c2ccccc2c1/C=N/NC(=O)CNC(=O)c1ccco1	18
CC(=O)c1c(C)[nH]c(C(=O)OCC(=O)N(C)c2c(N)n(Cc3ccccc3)c(=O)[nH]c2=O)c1C	-11.1
CC(C)Sc1nc(-c2ccccc2)cc(=O)[nH]1	10.1
Cc1ccc(C)c(NCC(=O)NNC(=S)Nc2ccccc2)c1	15
CCS(=O)(=O)c1ccc(-c2csc(-c3ccccc3)n2)c(Cl)c1Cl	12.1
O=C1C(Cc2ccccc2)C(c2ccccc2)N1c1ccccc1 (stereo not shown)	-0.202
CCCOC(=O)Nc1ccc([As](=O)(O)O)cc1NC(=O)OCCC	13.7

SMILES	hERG current change (%, negative = inhibition) at 1uM [%]
C=CCNC(=S)NNC(=O)c1ccc(=O)n(Cc2ccc(Cl)cc2Cl)c1	12.1
[N-]=[N+]=NC(c1ccccc1)c1nc2ccccc2[nH]c1=O (stereo not shown)	4.3
NC(=O)CC(NC(=O)c1ccc(Cl)cc1)C(=O)NCCc1ccc(S(N)(=O)=O)cc1 (stereo not shown)	16.1
Cc1ccc(C(=O)N/N=C\c2cccc(OC(=O)c3cccc(F)c3)c2)cn1	13.5
Cc1cc(C)n(-c2cc(Cl)cc(Cl)c2)c(=O)c1C#N	16.5
CC(C)(C)CC(=O)NCCCN1CCOCC1	9.12
Cc1ccc2c(CC(=O)OC3CCOC3=O)coc2c1 (stereo not shown)	7.2
CCOC(=O)N1CCN(S(=O)(=O)c2cc(Br)cc3c2N(C(C)=O)C(C)C3)CC1 (stereo not shown)	2.9
COc1ccc(C(=O)Nc2cccc(-c3ccc(N4CCOCC4)nn3)c2)cc1OC	11.4
O=C(CN1CCSC1=O)N1CCN(S(=O)(=O)c2ccccc2)CC1	6.72
CC(C)(C)NC(=O)Cn1cnc2cc([N+](=O)[O-])ccc2c1=O	1.24
O=C(NC1CCCCC1)N1CCC(c2nc(-c3ccc(S(=O)(=O)N4CCCC4)cc3)no2)CC1	-8.43
O=C(NC1CCCCC1)C(c1ccc(F)cc1)N(Cc1ccco1)C(=O)CN1C(=O)c2ccccc2S1(=O)=O (stereo not shown)	-0.847
COC(=O)Cn1ncn2cccc2c1=O	12
COc1cccc(CN(CC2CCCO2)S(=O)(=O)c2ccc(S(=O)(=O)N(C)C)cc2)c1 (stereo not shown)	7.5
CC1CN(C(=S)Nc2ccc(F)cc2F)CC(C)O1 (stereo not shown)	11.3
CN(c1ccccc1C(=O)O)S(=O)(=O)c1ccc2[nH]c(=O)[nH]c2c1	16.3
COn1c(-c2ccccc2)nc2c1CCc1c-2no[n+]1[O-]	8.78
O=C(NCc1ccccn1)C1CC(c2ccccc2O)=NO1 (stereo not shown)	13
CCOc1ccc(C(=O)NCC(=O)OCc2csc(-c3ccccc3)n2)cc1	11.3
O=C(N/N=C\c1cn(-c2ccccc2)nc1-c1ccccc1)c1ccc2c(c1)OCO2	13.4
Cc1ccc(S(=O)(=O)Nc2c(C)n(C)n(-c3ccccc3)c2=O)c(C)c1	10.7
